# Source: the RNAGym collection of RNA variant scans (doi:10.1093/nar/gkz1192)
# The source gives no read counts; variants with many changes may rest on few reads.
# B1: CPEB3 Ribozyme (parent)
# chain: UAACAGGGGGCCACAGCAGAAGCGUUCACGUCGCAGCCCCUGUCAGAUUCUGGUGAAUCUGCGAAUUCUGCUGUAUAUCUC
# Variants of: B1
# Assay: self-cleavage, relative activity (ratio to wild type); higher = more cleavage; in vitro, sequencing
# Method in brief: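 Relative activity compares each variant's cleaved/total read fraction with that of the unmutated ribozyme. To get these fractions, barcoded CPEB3 ribozyme libraries from rounds of error-prone PCR were transcribed with T7 RNA polymerase for 5 hours at 37°C and then given 15 min of DNase I treatment before EDTA was added. The RNAs were reverse transcribed with template switching and sequenced on Illumina, and DNA sequencing linked barcodes to variants. A minimum of 5 reads applied, and three batches were averaged.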
row,Variant,self-cleavage
1,UAACAGGGGGCCACAUCAGAGGCGUUUACGUCGCUGCCCCUGCCAGAUUCUGGUGAAUCUGCGAAUUCUGCUGUAUAUCUC,0.23
2,UAACAGGGGGCCACAUCAGAAGCGUUCCCGACGCAGCCCCUGUCAGAUUCUGGUGAAUCUGCGAAUUCUGCUGUAUAUCUC,0.2
3,UAACAGGGGGCCACAUCAGAAGCGUUCACGUCGCAGCCCCUGUCAGAUUCUGGUGUAUCUGCGAAUUCUGCUGUGUAUCCC,0.16
4,UAACAGGGGGCCACAUCAGAAGCGUUCACAUCGCAGCCCCAGUCAGAUUCUGGUGAAUCUGCGAAUUCUGCUGUAUAUCUC,0.15
5,UAACAGGGGGCCACAUCAGAAGCGAUCACGUCGCUGACCCAGUCAGAUUCUGGUGAAUCUGCGAAUUCUGCUGUAUAUCUC,0.14
6,UAACAGGGGGCCACAUCAGAAGCGUACACGUCGCGGCCCCUGUCAGAUUCUGGUGAACCUGCGAAUUCUGCUGUAUAUCUC,0.19
7,UAACAGGGGGCCACAUCAGAAGCGUACACGUCGCAGCCCCCGUCAGAUUCUAGUGAAUCUGCGAAUUCGGCUGUAUAUCUC,0.17
8,UAACAGGGGGCCACAUCAGAAGCGUCCACGUCGCAGCCCCUGCCAGAUUCUGGUGAAUCUGCGAAUUCUGCUGUAUAUCUC,0.51
9,UAACAGGGGGCCACAUCAGAAGCGUUCACGCCGCAGCCCCUGUCAGAUUCUGGUGAAUCUGCGAAUUCUGCUGCAUAUCCC,0.49
10,UAACAGGGGGCCACAUCAGAAGCGUUCACGUCGCAGCCCCUGCCAGAUUCUGGUGAAUCUGCGAGUUCUGCUGUAUAUCUC,0.05
11,UAACAGGGGGCCACAGAGGAAGCGUUCACGUCGCAGCCCCUGUCUGAUUCUGGGGAAUCUGCGUAUUCUGCUGUAUAUCUC,0.08
12,UAACAGGGGGCCACAGAGGAAGCGUUCACGUCGCAGCCCCUGUCAGAUUCUGGGGAAUCUGCGUAUUCUGCUGUAUAUCUC,0.03
13,UAACAGGGGGCCACAGAAGAAGCGUUCGCGUCGCAGUCCCUGUCAGAUUCUGGUGAAUCUGCGAAUUCUACUGUUUAUCUC,0.23
14,UAACAGGGGGCCACAGAAGAAGCGUUCACGUCGCGGCCCCUGUCAGAUUCUGGUGAAUCUGCGAAUUCUGCUGUAUAACUC,0.63
15,UAACAGGGGGCCACAGAAGAAGCGUUCACGUCGCAGCCCCUGUCAGAUUCUGGUGUAUCUGCGAAUUCUGCCGUAUAUCUC,0.2
16,UAACAGGGGGCCACAGAAGAAGCGUUCACGACGCAGCCCCAGUCAGAUUCUGGUGAAUCUGCGAAUUCUGCUGUAUAUCCC,0.08
17,UAACAGGGGGCCACAGAAGAAGCGUUCACGCCGCAGCCCCUGUCUGAUUCUGGUGAAUCUGCGAAUUCUGCUGUAUAUCUC,0.2

row,Variant,self-cleavage
1,UAACAGGGGGCCACAGAAGAAGCGUUCACGUCGCAGCCCCCGUCAGAUUCUGGUGGAUCUGCGAAUUCUGCUGUAUAUCUC,0.26
2,UAACAGGGGGCCACAGAAGAAGCGUUCACGUCGCAGCCCCUGUCAGACUCUGGUGAAUCUGCGGAUUCUGCCGUAUAUCUC,0.33
3,UAACAGGGGGCCACAGAAGAAGCGUUCACGUCGCAGCCCCUGUCAGAUUCUGGCGAAUCUGCGAAUUCUGCUGUACAUCUC,0.16
4,UAACAGGGGGCCACAGGGGAAGCGUUCACGUCGCAGCCCCUGUCAGAUUCUGGUGAAUCUGCGAAUACUGCCGUAUAUCUC,0.05
5,UAACAGGGGGCCACAGGUGAAGCGUUCACGUCGCAGCCCCUGUCAGAUUCUGGUGGAUCUGCGAAUCCUGCUGUAUAUCUC,0.18
6,UAACAGGGGGCCACAGGUGAAGCAUUAACGUCGCGGCCCCUGUCAGUUUCUGGCGAAUCUGCGAAUUCUGCUGUAUAUCUC,0.06
7,UAACAGGGGGCCACAGGAGAGGCGUUCACGUCGCAGCCCCUGUCAGAUUCUGGUGAAUCUGCGAAUACAGCUGUAUAUCUC,0.15
8,UAACAGGGGGCCACAGGAGAAGCGUUCACGUCGCAGCCCCUGUCAGGUUCUGGUGAAUCUGCGGAUUCUGCUGUAUAUCUC,0.06
9,UAACAGGGGGCCACAGGAGAAGCGUUCACGUCGGAGCCCCUGUCAGACUCUGGUGAGUCUGCGAAUUCUGCUGUAUAUCUC,0.24
10,UAACAGGGGGCCACAGGAGAAGCGUUCACGUCGCAGCCUCUGUCAGAUUCUGGUGAAUCUGCGAAUACUGCUGUACGUCUC,0.07
11,UAACAGGGGGCCACAGGAGAAGCGUUCACGUCGCAGCCCUUGUCAGAUUCUGGUGAAUCUGCGAAUUCUGCUGUAUUUCUC,0.1
12,UAACAGGGGGCCACAGGAGAAGCCUUCACGUCGCAGCCCCUGUCAGAUUCUGGUGAAUCUGCGUAUUCUGCUGCGUAUCUC,0.03
13,UAACAGGGGGCCACAGGAGAAGCGCUCACGUCGCAGCCCCUGUCAGAUUCUGGUGAAUCAGCGAAUUCCGCUGUGCAUCUC,0.09
14,UAACAGGGGGCCACAGGAGAAGCGUCCACGUCGCAGCCCCUGUCAGGUUCUGGUGAAUCUGCGAAUUCUGCUGUAUAUCUC,0.34
15,UAACAGGGGGCCACAGGAGAAGCGUUCACGUCGCAGCCCCUGUCAGAUUCCGGUGAAUCCGCGAAUUCUGCUGUAAAACUC,0.07
16,UAACAGGGGGCCACAGGAGAAGCGUUCACGUCGCAGCCCCUGUCAGAUUCUGGUGAAUCUGCGAAUACUGCAGUAUAUCUC,0.13
17,UAACAGGGGGCCACAGUGGAAGCGUUCACGUCGCAGCCCCUGUCGGAUCCUGGUGAAUCUGCGAAUUCUGCUGUAUAUCCC,0.4
